Experimental data reported in the supplement of paper PMC8728848.
This is one part of the list.

Tests used:
Assay in all cases: glycan array binding signal (z-score within array); higher = stronger binding
Details in all cases: glycan notation: IUPAC condensed, linker removed
[1] = target: Fuc(a1-2)Gal(b1-4)GlcNAc(b1-3)Gal(b1-4)GlcNAc(b1-3)Gal(b1-4)GlcNAc
Summary of the method: (§1)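 The binding signal is a Z-score computed within each array and averaged over linkers. Arrays of the same protein sequence at different concentrations or buffers were also averaged together. Data originate from 3228 arrays in the Consortium for Functional Glycomics database, kept only where the protein sequence was available.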

[2] = target: Fuc(a1-2)Gal(b1-4)GlcNAc(b1-3)GalNAc
Summary of the method: as §1

[3] = target: Fuc(a1-2)Gal(b1-4)GlcNAc(b1-3)[Fuc(a1-2)Gal(b1-4)GlcNAc(b1-6)]GalNAc
Summary of the method: as §1

[4] = target: Fuc(a1-2)Gal(b1-4)GlcNAc(b1-3)[Fuc(a1-3)[Gal(b1-4)]GlcNAc(b1-6)]Gal(b1-4)Glc
Summary of the method: as §1

[5] = target: Fuc(a1-2)Gal(b1-4)GlcNAc(b1-6)GalNAc
Summary of the method: as §1

[6] = target: Fuc(a1-2)Gal(b1-4)GlcNAc6S
Summary of the method: as §1

[7] = target: Fuc(a1-2)Gal(b1-4)[Fuc(a1-3)]GlcNAc
Summary of the method: as §1

[8] = target: Fuc(a1-2)Gal(b1-4)[Fuc(a1-3)]GlcNAc(b1-2)Man(a1-3)[Fuc(a1-2)Gal(b1-4)[Fuc(a1-3)]GlcNAc(b1-2)Man(a1-6)]Man(b1-4)GlcNAc(b1-4)[Fuc(a1-6)]GlcNAc
Summary of the method: as §1

[9] = target: Fuc(a1-2)Gal(b1-4)[Fuc(a1-3)]GlcNAc(b1-2)[Fuc(a1-2)Gal(b1-4)[Fuc(a1-3)]GlcNAc(b1-4)]Man(a1-3)[Fuc(a1-2)Gal(b1-4)[Fuc(a1-3)]GlcNAc(b1-2)Man(a1-6)]Man(b1-4)GlcNAc(b1-4)GlcNAc
Summary of the method: as §1

[10] = target: Fuc(a1-2)Gal(b1-4)[Fuc(a1-3)]GlcNAc(b1-3)Gal(b1-4)[Fuc(a1-3)]GlcNAc
Summary of the method: as §1

[11] = target: Fuc(a1-2)Gal(b1-4)[Fuc(a1-3)]GlcNAc(b1-3)Gal(b1-4)[Fuc(a1-3)]GlcNAc(b1-3)Gal(b1-4)[Fuc(a1-3)]GlcNAc
Summary of the method: as §1

[12] = target: Fuc(a1-2)Gal(b1-4)[Fuc(a1-3)]GlcNAc(b1-3)GalNAc
Summary of the method: as §1

[13] = target: Fuc(a1-2)Gal(b1-4)[Fuc(a1-3)]GlcNAc(b1-3)[Neu5Ac(a2-6)Gal(b1-4)GlcNAc(b1-6)]Gal(b1-4)Glc
Summary of the method: as §1

[14] = target: Fuc(a1-2)Gal3S(b1-4)GlcNAc
Summary of the method: as §1

[15] = target: Fuc(a1-2)Gal6S(b1-3)GlcNAc
Summary of the method: as §1

[16] = target: Fuc(a1-2)Gal6S(b1-3)GlcNAc6S
Summary of the method: as §1

Fuc(a1-2)Gal6S(b1-4)Glc = target: Fuc(a1-2)Gal6S(b1-4)Glc
Summary of the method: as §1

[17] = target: Fuc(a1-2)Gal6S(b1-4)Glc6S
Summary of the method: as §1

Fuc(a1-2)[Gal(a1-3)]Gal = target: Fuc(a1-2)[Gal(a1-3)]Gal
Summary of the method: as §1

[18] = target: Fuc(a1-2)[Gal(a1-3)]Gal(b1-3)GalNAc
Summary of the method: as §1

[19] = target: Fuc(a1-2)[Gal(a1-3)]Gal(b1-3)GalNAc(b1-3)Gal(a1-4)Gal(b1-4)Glc
Summary of the method: as §1

[20] = target: Fuc(a1-2)[Gal(a1-3)]Gal(b1-3)GlcNAc
Summary of the method: as §1

[21] = target: Fuc(a1-2)[Gal(a1-3)]Gal(b1-3)GlcNAc(b1-2)Man(a1-3)[Fuc(a1-2)[Gal(a1-3)]Gal(b1-3)GlcNAc(b1-2)Man(a1-6)]Man(b1-4)GlcNAc(b1-4)GlcNAc
Summary of the method: as §1

[22] = target: Fuc(a1-2)[Gal(a1-3)]Gal(b1-3)GlcNAc(b1-2)Man(a1-3)[Fuc(a1-2)[Gal(a1-3)]Gal(b1-3)GlcNAc(b1-2)Man(a1-6)]Man(b1-4)GlcNAc(b1-4)[Fuc(a1-6)]GlcNAc
Summary of the method: as §1

[23] = target: Fuc(a1-2)[Gal(a1-3)]Gal(b1-3)GlcNAc(b1-3)GalNAc
Summary of the method: as §1

[24] = target: Fuc(a1-2)[Gal(a1-3)]Gal(b1-3)GlcNAc(b1-6)GalNAc
Summary of the method: as §1

[25] = target: Fuc(a1-2)[Gal(a1-3)]Gal(b1-4)Glc
Summary of the method: as §1

[26] = target: Fuc(a1-2)[Gal(a1-3)]Gal(b1-4)GlcNAc
Summary of the method: as §1

[27] = target: Fuc(a1-2)[Gal(a1-3)]Gal(b1-4)GlcNAc(b1-2)Man
Summary of the method: as §1

[28] = target: Fuc(a1-2)[Gal(a1-3)]Gal(b1-4)GlcNAc(b1-2)Man(a1-3)[Fuc(a1-2)[Gal(a1-3)]Gal(b1-4)GlcNAc(b1-2)Man(a1-6)]Man(b1-4)GlcNAc(b1-4)GlcNAc
Summary of the method: as §1

[29] = target: Fuc(a1-2)[Gal(a1-3)]Gal(b1-4)GlcNAc(b1-2)Man(a1-3)[Fuc(a1-2)[Gal(a1-3)]Gal(b1-4)GlcNAc(b1-2)Man(a1-6)]Man(b1-4)GlcNAc(b1-4)[Fuc(a1-6)]GlcNAc
Summary of the method: as §1

[30] = target: Fuc(a1-2)[Gal(a1-3)]Gal(b1-4)GlcNAc(b1-3)GalNAc
Summary of the method: as §1

[31] = target: Fuc(a1-2)[Gal(a1-3)]Gal(b1-4)GlcNAc(b1-3)[Fuc(a1-2)[Gal(a1-3)]Gal(b1-4)GlcNAc(b1-6)]GalNAc
Summary of the method: as §1

[32] = target: Fuc(a1-2)[Gal(a1-3)]Gal(b1-4)GlcNAc(b1-6)GalNAc
Summary of the method: as §1

[33] = target: Fuc(a1-2)[Gal(a1-3)]Gal(b1-4)[Fuc(a1-3)]Glc
Summary of the method: as §1

[34] = target: Fuc(a1-2)[Gal(a1-3)]Gal(b1-4)[Fuc(a1-3)]GlcNAc
Summary of the method: as §1

[35] = target: Fuc(a1-2)[Gal(a1-3)]Gal(b1-4)[Fuc(a1-3)]GlcNAc(b1-3)GalNAc
Summary of the method: as §1

[36] = target: Fuc(a1-2)[Gal(a1-4)]Gal(b1-4)GlcNAc
Summary of the method: as §1

[37] = target: Fuc(a1-2)[GalNAc(a1-3)]Gal
Summary of the method: as §1

[38] = target: Fuc(a1-2)[GalNAc(a1-3)]Gal(b1-3)GalNAc(a1-3)[Fuc(a1-2)]Gal(b1-4)GlcNAc
Summary of the method: as §1

[39] = target: Fuc(a1-2)[GalNAc(a1-3)]Gal(b1-3)GalNAc(b1-3)Gal(a1-4)Gal(b1-4)Glc
Summary of the method: as §1

[40] = target: Fuc(a1-2)[GalNAc(a1-3)]Gal(b1-3)GlcNAc
Summary of the method: as §1

[41] = target: Fuc(a1-2)[GalNAc(a1-3)]Gal(b1-3)GlcNAc(b1-2)Man(a1-3)[Fuc(a1-2)[GalNAc(a1-3)]Gal(b1-3)GlcNAc(b1-2)Man(a1-6)]Man(b1-4)GlcNAc(b1-4)GlcNAc
Summary of the method: as §1

[42] = target: Fuc(a1-2)[GalNAc(a1-3)]Gal(b1-3)GlcNAc(b1-2)Man(a1-3)[Fuc(a1-2)[GalNAc(a1-3)]Gal(b1-3)GlcNAc(b1-2)Man(a1-6)]Man(b1-4)GlcNAc(b1-4)[Fuc(a1-6)]GlcNAc
Summary of the method: as §1

[43] = target: Fuc(a1-2)[GalNAc(a1-3)]Gal(b1-3)GlcNAc(b1-3)GalNAc
Summary of the method: as §1

B1: Mg3lysM (Mycosphaerella graminicola) (protein)
chain: APQNPPTSCSAAPQPTGTGSPGTVCGSTTFTNYTVKAGDTLGAIAKQYNSGVCDIAKVNGIDNPDYIKPDQVLSIPANCVTPDNTSCVKPVPVITNTCVLGVGSTYTVKSGDSFSAIATSFNITLASLEARNPQIPNYDLIFPGQVINTPLCPNSVCDSIGTYVIESGDIFYNLAQSNNVTVGQLESLNVNVNVTDIHPGDIIILPHNCHNITASA
[1]
  glycan array binding signal (z-score): -0.034
[2]
  glycan array binding signal (z-score): -0.07
[3]
  glycan array binding signal (z-score): -0.151
[4]
  glycan array binding signal (z-score): -0.038
[5]
  glycan array binding signal (z-score): -0.086
[6]
  glycan array binding signal (z-score): -0.05
[7]
  glycan array binding signal (z-score): -0.109
[8]
  glycan array binding signal (z-score): -0.046
[9]
  glycan array binding signal (z-score): -0.132
[10]
  glycan array binding signal (z-score): -0.06
[11]
  glycan array binding signal (z-score): -0.102
[12]
  glycan array binding signal (z-score): -0.133
[13]
  glycan array binding signal (z-score): -0.064
[14]
  glycan array binding signal (z-score): -0.003
[15]
  glycan array binding signal (z-score): -0.103
[16]
  glycan array binding signal (z-score): -0.089
Fuc(a1-2)Gal6S(b1-4)Glc
  glycan array binding signal (z-score): -0.07
[17]
  glycan array binding signal (z-score): -0.1
Fuc(a1-2)[Gal(a1-3)]Gal
  glycan array binding signal (z-score): -0.086
[18]
  glycan array binding signal (z-score): -0.098
[19]
  glycan array binding signal (z-score): -0.047
[20]
  glycan array binding signal (z-score): -0.116
[21]
  glycan array binding signal (z-score): -0.079
[22]
  glycan array binding signal (z-score): -0.127
[23]
  glycan array binding signal (z-score): -0.104
[24]
  glycan array binding signal (z-score): -0.044
[25]
  glycan array binding signal (z-score): -0.069
[26]
  glycan array binding signal (z-score): -0.081
[27]
  glycan array binding signal (z-score): -0.157
[28]
  glycan array binding signal (z-score): 0.058
[29]
  glycan array binding signal (z-score): -0.109
[30]
  glycan array binding signal (z-score): -0.118
[31]
  glycan array binding signal (z-score): -0.1
[32]
  glycan array binding signal (z-score): -0.03
[33]
  glycan array binding signal (z-score): -0.118
[34]
  glycan array binding signal (z-score): -0.092
[35]
  glycan array binding signal (z-score): -0.106
[36]
  glycan array binding signal (z-score): -0.055
[37]
  glycan array binding signal (z-score): -0.111
[38]
  glycan array binding signal (z-score): -0.066
[39]
  glycan array binding signal (z-score): 0.006
[40]
  glycan array binding signal (z-score): -0.108
[41]
  glycan array binding signal (z-score): -0.07
[42]
  glycan array binding signal (z-score): -0.077
[43]
  glycan array binding signal (z-score): -0.073
